Data from the supplement of paper PMC3334620.
Whole data set: some 33,000 sequences, median “E-score (-0.5 to 0.5)” near -0.012, cut for the highest 2% near 0.29. This is one part of the list.

Biological target: T1, Ybr033w (UniProt P38073)
T1 sequence: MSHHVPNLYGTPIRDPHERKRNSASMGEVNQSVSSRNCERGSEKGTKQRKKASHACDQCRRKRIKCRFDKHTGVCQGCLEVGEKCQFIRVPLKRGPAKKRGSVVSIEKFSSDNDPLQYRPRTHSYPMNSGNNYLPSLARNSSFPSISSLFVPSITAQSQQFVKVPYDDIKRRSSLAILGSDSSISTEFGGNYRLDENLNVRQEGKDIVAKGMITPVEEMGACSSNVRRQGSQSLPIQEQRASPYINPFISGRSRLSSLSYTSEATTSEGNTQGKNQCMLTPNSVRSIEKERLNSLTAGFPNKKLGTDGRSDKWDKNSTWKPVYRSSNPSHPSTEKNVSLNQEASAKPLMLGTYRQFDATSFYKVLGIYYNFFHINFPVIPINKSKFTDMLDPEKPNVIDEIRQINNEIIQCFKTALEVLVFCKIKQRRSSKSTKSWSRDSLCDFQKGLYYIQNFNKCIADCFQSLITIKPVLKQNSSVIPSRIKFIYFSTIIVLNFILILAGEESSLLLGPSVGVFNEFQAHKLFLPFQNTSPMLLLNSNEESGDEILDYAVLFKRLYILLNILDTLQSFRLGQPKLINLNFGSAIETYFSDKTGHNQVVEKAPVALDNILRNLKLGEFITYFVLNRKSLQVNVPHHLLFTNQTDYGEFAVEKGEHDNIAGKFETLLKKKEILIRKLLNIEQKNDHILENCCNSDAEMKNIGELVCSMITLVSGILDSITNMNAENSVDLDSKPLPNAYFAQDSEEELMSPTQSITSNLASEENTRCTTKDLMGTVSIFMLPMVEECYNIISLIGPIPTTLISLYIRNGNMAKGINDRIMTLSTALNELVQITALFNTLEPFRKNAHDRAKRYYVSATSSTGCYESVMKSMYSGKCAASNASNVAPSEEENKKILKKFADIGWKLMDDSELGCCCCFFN
Test: PBM E-score (8-mer binding enrichment) (E-score (-0.5 to 0.5)); higher = stronger / more preferred TF binding; most listed sequences are background and not binding sites
Conditions: protein concentration: 200 nM; construct: GST-full length
How it was run: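 Yeast transcription factors carrying a GST tag, as full-length proteins or DNA-binding domains, were produced by PURExpress in vitro transcription/translation. About 100-200 nM protein was applied to universal all-10-mer Agilent arrays, double-stranded by primer extension on fresh or once-stripped slides. Bound protein was detected with fluorescent anti-GST, and scans were normalised with masliner. The Universal PBM Analysis Suite gave each ungapped eight-base word, pooled with its reverse complement, an E-score, a modified Wilcoxon-Mann-Whitney statistic.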

Sequence	PBM E-score
AAAGACTA	-0.116
CGTCCTAG	-0.0647
CCCCATCA	-0.143
CAGCTATC	-0.0703
ATCTAATA	0.266
CGTAGATC	-0.0069
ACTAGACA	0.119
ATCCCCAT	-0.14
CCGTACGC	-0.283
ATGTATGC	0.254
GCGGGAGC	-0.293
AAGCCGGT	-0.053
CAAGGGAG	-0.12
GGATATTA	0.144
ACCTTACG	0.022
CAACTCAG	-0.106
AGATGCAT	-0.00621
ATGGCTAG	-0.0576
CATGATGC	0.00494
ATAGCTTA	0.0381
AACGTCGG	-0.0284
GCAGCCCC	-0.309
ATGGCGCG	-0.0534
CGTGTGCC	-0.174
AGGAGACC	-0.278

Sequence	PBM E-score
CCGTGCGC	-0.22
TCGACAAA	0.209
GCTAGCCC	-0.211
ATTTTCAG	0.148
GGTAAGAA	-0.0975
ATCCTCTA	0.0223
AGTAATGC	0.0861
AACCGAGA	0.138
ATTCGTAG	0.0286
GTAAACCA	0.114
CTAGCGGA	-0.118
CACGCGGG	-0.242
CGAGGCTC	-0.219
CTCCCCAC	-0.114
ACGTATTC	-0.0366
AACGCTGG	-0.0678
AGCCGAAT	-0.0347
GCTTCGCC	-0.273
CCTTATCG	0.158
AGGTACGC	-0.0892
ACCAGCTG	-0.205
ACTTGCGG	-0.195
AAGTCAGG	-0.0306
TACGTACA	0.116
CGCTAGGC	-0.217

Sequence	PBM E-score
GGCCCCAA	-0.197
CATATCAA	0.24
CAGGTATA	-0.0294
AAGATAGA	0.103
ATCCAGAG	0.137
AGTCAGCG	-0.193
GAACCACC	0.0199
GTGCAAAA	0.0387
CTTGACGC	-0.0854
TCGCAAGA	-0.203
TCCCCTAA	-0.208
ACTGCTGC	-0.0794
GTCGGAGA	0.0825
CTGCGTAA	0.0284
ACCAATAA	0.107
CACCCAAA	0.0595
CTTTTGCA	0.127
AAATTCAG	0.204
CCATAGGA	-0.0978
TCCAGGAA	0.196
ACATTAAT	0.235
CTTCAATC	0.0931
CGGAGGGC	-0.243
ATAACCCA	0.128
GATTGTCA	0.0585

Sequence	PBM E-score
CCGTTGGA	-0.211
AGAGAGAG	-0.0462
AACCTAGC	0.0295
TGCGTCAA	-0.132
CAATTCCC	0.0996
CATTGCAC	0.106
TCCGACGA	0.14
CAAATAGA	0.241
CTCCTAGA	-0.0672
AGAACCCT	-0.0498
AGCTGTTA	0.101
GTACAAGA	-0.0515
AAGCTGTA	0.236
ATTGAGCA	-0.0103
ACCCTCGA	-0.193
AAAATGAC	0.15
ACCGTCGC	-0.169
ACGCATAC	0.00155
CGCAGTCA	-0.103
ACATGACT	-0.129
ACCTGTGG	-0.228
CTATTGCA	0.148
CTCAGGAG	-0.106
ACGGCTGC	-0.249
CACCAGTG	-0.134

Sequence	PBM E-score
CCATCGAA	-0.0709
CAGACTAG	-0.17
AGTTTCAC	0.133
CGCTGGAC	-0.0231
CAGTTCCC	-0.0612
ACTTCCGC	0.0114
AGAGTGGG	-0.154
ATAATCGA	0.205
CAGTTGGG	-0.25
AGCCGTCG	0.015
AGGGAAGA	0.0808
ACTGCGCG	-0.0114
AAATACTG	0.172
CACGGAGG	-0.17
CAAGTATA	0.138
CATACGGG	-0.246
ATGGCAGC	-0.147
CTCACTGC	0.0232
AGGAAAAC	0.12
TTTAAAAA	0.149
GACTATTA	0.208
ATAACGAT	0.0877
AGGGAATC	0.0653
ATGGATAA	0.259
CATGTAGG	0.0319

Sequence	PBM E-score
CTCTGTGA	0.0621
CGTACCAA	0.169
ACGTGATG	-0.0512
ACCACGAA	0.0666
GTGGACGA	-0.0473
AAACAGCG	0.0942
ATCCGAAC	0.057
AGCTTTCC	-0.0772
AGAGCCGA	-0.0115
AGGTGAGA	0.126
GGCTATTA	0.0685
CTAGTACA	0.14
GAAGCAAC	0.0192
CGCGGTGA	0.0155
CCCCCGGA	-0.275
ACCCTTAT	0.0185
AAAATTCG	0.279
AATCGCGC	0.00775
CCATTCCA	-0.015
CTGGGAGC	-0.3
AGGAGGGC	-0.196
GGCACCGA	-0.0891
CTGTGGGC	-0.143
CGGAGACA	0.13
CCATACCC	-0.175

Sequence	PBM E-score
CAACAGAG	0.0418
AAAACATC	0.0893
AACGCGTC	-0.106
GCGAAATA	0.12
TAGGAACA	0.316
GTTCCCCA	-0.174
AACGCGTT	-0.0853
GATGTGAA	0.192
AAACTTCC	0.068
GATATACC	0.131
TGGTATAA	0.21
AGATATCA	0.0755
GAACTTCC	0.16
CATAGCGC	0.0611
CATAACGC	-0.00058
TAAGCTCA	0.0366
AAGCTCAG	0.00297
AAACGAAA	0.113
CCACACGA	-0.143
CGTTTGAG	0.039
AATGTCCA	0.0106
CAAATTCA	0.178
